Results as given in the supplement of paper PMC4967469.
IC50 is the fitted dose that halves viability relative to control wells, and lower means more sensitive; a fit beyond the top or the lowest dose is shown as a bound at that dose. AUC is the area under the same curve over the 256-fold range up to the top dose, as a fraction; values near 1 show little effect. For some assays here: Any top dose called inferred was derived from the fitted curves, not read from the paper.

Experiments:
Assay in all cases: Viability of human cancer cell lines after 72 h of drug (GDSC screen)
Vorinostat = compound: O=C(CCCCCCC(=O)Nc1ccccc1)NO [Vorinostat]; settings: top dose 10 µM
Method: (§1)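 Human cancer cell lines in 384-well plates, medium with 10% serum, drug for 72 h over a 256-fold dose range (nine 2-fold or five 4-fold steps up to the top dose). Adherent lines were fixed and stained with the nucleic acid dye Syto60, suspension lines read with resazurin; signal relative to control wells, capped at 0 and 100%. One two-parameter sigmoid per drug and line, fitted in a mixed model over all curves with the slope shared within a line.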

SN-38 = compound: CCc1c2c(nc3ccc(O)cc13)-c1cc3c(c(=O)n1C2)COC(=O)[C@]3(O)CC [SN-38]; settings: top dose 0.05 µM; top dose inferred
Method: as §1

Axitinib = compound: CNC(=O)c1ccccc1Sc1ccc2c(/C=C/c3ccccn3)n[nH]c2c1 [Axitinib]; settings: top dose 2 µM
Method: as §1

Dabrafenib = compound: CC(C)(C)c1nc(-c2cccc(NS(=O)(=O)c3c(F)cccc3F)c2F)c(-c2ccnc(N)n2)s1 [Dabrafenib]; settings: top dose 10 µM
Method: as §1

Methotrexate = compound: CN(Cc1cnc2nc(N)nc(N)c2n1)c1ccc(C(=O)N[C@@H](CCC(=O)O)C(=O)O)cc1 [Methotrexate]; settings: top dose 0.2 µM
Method: as §1

| Cell Line | AUC (Vorinostat) | IC50 (Vorinostat) | AUC (SN-38) | IC50 (SN-38) | AUC (Axitinib) | IC50 (Axitinib) | AUC (Dabrafenib) | IC50 (Dabrafenib) | AUC (Methotrexate) | IC50 (Methotrexate) |
| --- | --- | --- | --- | --- | --- | --- | --- | --- | --- | --- |
| EFM-192A (breast, adherent) | 0.54 | 813 nM | 0.943 | > 50 nM | 0.984 | > 2000 nM | 0.951 | > 10000 nM | 0.923 | > 200 nM |
| EFO-21 (ovary, adherent) | 0.935 | > 10000 nM | 0.763 | 26.1 nM | 0.98 | > 2000 nM | 0.965 | > 10000 nM | 0.95 | > 200 nM |
| EFO-27 (ovary, adherent) | 0.622 | 1480 nM | 0.843 | 49.4 nM | 0.972 | > 2000 nM | 0.805 | 6620 nM | 0.872 | > 200 nM |
| EHEB (lymphoid neoplasm, suspension) | 0.558 | 966 nM | 0.874 | > 50 nM | 0.972 | > 2000 nM | 0.812 | 8750 nM | 0.909 | > 200 nM |
| EM-2 (chronic myeloid leukaemia, suspension) | 0.545 | 843 nM | 0.498 | 3.09 nM | 0.483 | 111 nM | 0.757 | 3860 nM | 0.59 | 22.9 nM |
| EMC-BAC-1 (lung adenocarcinoma, adherent) | 0.564 | 961 nM | 0.726 | 15.2 nM | 0.924 | > 2000 nM | 0.952 | > 10000 nM | 0.781 | 95.6 nM |
| EMC-BAC-2 (lung adenocarcinoma, adherent) | 0.684 | 2270 nM | 0.668 | 10.1 nM | 0.916 | > 2000 nM | 0.439 | 412 nM | 0.809 | 129 nM |
| EN (endometrium, adherent) | 0.84 | 9710 nM | 0.982 | > 50 nM | 0.876 | > 2000 nM | 0.982 | > 10000 nM | 0.944 | > 200 nM |
| EPLC-272H (lung squamous cell carcinoma, adherent) | 0.787 | 4990 nM | 0.745 | 17.6 nM | 0.941 | > 2000 nM | 0.919 | > 10000 nM | 0.969 | > 200 nM |
| ES1 (Ewing sarcoma, adherent) | 0.63 | 1420 nM | 0.326 | 1.03 nM | 0.93 | > 2000 nM | 0.754 | 3330 nM | 0.858 | 161 nM |
| ES4 (Ewing sarcoma, adherent) | 0.662 | 1900 nM | 0.353 | 1.15 nM | 0.949 | > 2000 nM | 0.952 | > 10000 nM | 0.681 | 43.3 nM |
| ES5 (Ewing sarcoma, adherent) | 0.595 | 1180 nM | 0.633 | 7.72 nM | 0.819 | 1360 nM | 0.846 | 8940 nM | 0.868 | > 200 nM |
| ES6 (Ewing sarcoma, adherent) | 0.693 | 2500 nM | 0.882 | > 50 nM | 0.937 | > 2000 nM | 0.907 | > 10000 nM | 0.891 | > 200 nM |
| ES7 (Ewing sarcoma, adherent) | 0.662 | 1790 nM | 0.227 | 0.487 nM | 0.822 | 1210 nM | 0.81 | 5440 nM | 0.847 | 153 nM |
| ES8 (Ewing sarcoma, adherent) | 0.579 | 1010 nM | 0.262 | 0.694 nM | 0.808 | 940 nM | 0.969 | > 10000 nM | 0.963 | > 200 nM |
| ESO26 (oesophagus, adherent) | 0.736 | 2810 nM | 0.714 | 12 nM | 0.983 | > 2000 nM | 0.988 | > 10000 nM | 0.834 | 120 nM |
| ESO51 (oesophagus, semi-adherent) | 0.531 | 786 nM | 0.907 | > 50 nM | 0.97 | > 2000 nM | 0.965 | > 10000 nM | 0.875 | > 200 nM |
| ESS-1 (endometrium, adherent) | 0.806 | 4480 nM | 0.371 | 1.43 nM | 0.921 | > 2000 nM | 0.988 | > 10000 nM | 0.955 | > 200 nM |
| ETK-1 (biliary tract, adherent) | 0.761 | 4000 nM | 0.797 | 27.3 nM | 0.937 | > 2000 nM | 0.95 | > 10000 nM | 0.917 | > 200 nM |
| EVSA-T (breast, adherent) | 0.648 | 1500 nM | 0.687 | 9.55 nM | 0.952 | > 2000 nM | 0.99 | > 10000 nM | 0.977 | > 200 nM |
| EW-1 (Ewing sarcoma, semi-adherent) | 0.6 | 1150 nM | 0.289 | 0.838 nM | 0.909 | > 2000 nM | 0.986 | > 10000 nM | 0.843 | 125 nM |
| EW-3 (Ewing sarcoma, adherent) | 0.532 | 772 nM | 0.263 | 0.587 nM | 0.966 | > 2000 nM | 0.932 | > 10000 nM | 0.806 | 119 nM |
| EW-7 (Ewing sarcoma, semi-adherent) | 0.566 | 926 nM | 0.333 | 1.14 nM | 0.971 | > 2000 nM | 0.985 | > 10000 nM | 0.729 | 50.8 nM |
| EW-11 (Ewing sarcoma, adherent) | 0.651 | 1860 nM | 0.939 | > 50 nM | 0.879 | > 2000 nM | 0.844 | > 10000 nM | 0.893 | > 200 nM |
| EW-16 (Ewing sarcoma, adherent) | 0.686 | 2130 nM | 0.425 | 1.92 nM | 0.905 | > 2000 nM | 0.935 | > 10000 nM | 0.895 | > 200 nM |
| EW-18 (Ewing sarcoma, suspension) | 0.506 | 652 nM | 0.932 | > 50 nM | 0.928 | > 2000 nM | 0.973 | > 10000 nM | 0.908 | > 200 nM |
